The full ranking holds about 33,000 sequences; the median of “E-score (-0.5 to 0.5)” is about -0.041, and the highest 2% start at about 0.37. Some of the results follow.
Target: T1, Ecm22 (UniProt Q05958)
T1 sequence: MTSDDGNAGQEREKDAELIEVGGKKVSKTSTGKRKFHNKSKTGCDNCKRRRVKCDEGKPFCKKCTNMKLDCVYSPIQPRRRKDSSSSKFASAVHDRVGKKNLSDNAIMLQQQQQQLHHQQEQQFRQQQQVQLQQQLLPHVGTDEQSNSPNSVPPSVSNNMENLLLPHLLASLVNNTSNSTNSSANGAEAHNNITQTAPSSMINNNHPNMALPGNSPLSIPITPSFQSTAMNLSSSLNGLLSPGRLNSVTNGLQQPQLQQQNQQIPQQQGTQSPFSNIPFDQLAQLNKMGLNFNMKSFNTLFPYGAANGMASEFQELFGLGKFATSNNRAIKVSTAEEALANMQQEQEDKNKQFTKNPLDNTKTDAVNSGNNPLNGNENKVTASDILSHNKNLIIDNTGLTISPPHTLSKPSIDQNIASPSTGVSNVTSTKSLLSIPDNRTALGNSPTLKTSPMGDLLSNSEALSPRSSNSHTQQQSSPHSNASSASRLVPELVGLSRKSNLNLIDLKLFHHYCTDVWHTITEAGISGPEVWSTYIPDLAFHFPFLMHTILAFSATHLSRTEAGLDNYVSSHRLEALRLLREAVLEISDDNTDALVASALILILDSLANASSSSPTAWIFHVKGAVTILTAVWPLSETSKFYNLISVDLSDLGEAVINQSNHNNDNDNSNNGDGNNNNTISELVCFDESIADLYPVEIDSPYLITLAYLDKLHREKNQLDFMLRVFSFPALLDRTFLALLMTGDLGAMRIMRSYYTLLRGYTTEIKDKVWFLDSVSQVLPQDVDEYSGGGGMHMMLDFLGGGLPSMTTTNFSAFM
Experiment: PBM E-score (8-mer binding enrichment) (E-score (-0.5 to 0.5)); higher = stronger / more preferred TF binding; most listed sequences are background and not binding sites
Details: protein concentration: 200 nM; construct: GST-full length
In short: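 Full-length yeast transcription factors or their DNA-binding domains, GST-tagged and expressed with PURExpress, were applied at about 100-200 nM to universal all-10-mer Agilent arrays. These arrays had been made double-stranded by primer extension on fresh or once-stripped slides. Detection used fluorescent anti-GST, normalisation used masliner, and E-scores for ungapped eight-base words pooled with reverse complements came from the Universal PBM Analysis Suite.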

Point of comparison: CGTGACAA, “PBM E-score” value -0.0343. Against it:
- GCCTGTCA — lower, -0.17
- AGGCCTTC — lower, -0.0493
- CGACCTTC — higher, 0.159
- ACCTGAGT — lower, -0.121
- AGATACAG — higher, -0.0199
- GATCTCGA — higher, 0.04
- ACTGGCAG — lower, -0.171
- GCATGTGA — lower, -0.0633
- ATGGGTCG — higher, 0.111
- GACATGCA — higher, -0.0288
- GTCGCATA — higher, 0.369
- CGACAGCA — higher, 0.105
- CCTCACTA — lower, -0.119
- AAACAGAA — lower, -0.129
- ATCGGCCC — lower, -0.12
- TATTAGGA — higher, 0.0943
- AATTCCAA — lower, -0.172
- CGGCGTAA — higher, 0.249
- CTCATACA — lower, -0.0369
- CTTCCAGA — lower, -0.0671
- AGGATCCC — higher, -0.031
- GCTCCTAA — lower, -0.217
- GGGATAAA — higher, -0.00211
- ACACGCAG — higher, 0.127
- GCTCAGAA — lower, -0.0447
- GTCGGAAC — higher, 0.217
- GCAACTGA — higher, 0.0723
- GGTCAAAC — higher, 0.19
- CCCTCGCA — higher, 0.243
- CCTTTTGC — lower, -0.0641
- ACTTTAAG — lower, -0.188
- ACGCCTGC — lower, -0.163
- GCATCCGC — lower, -0.18
- ATGTATAC — higher, 0.179
- CATTGATC — higher, 0.079
- GAACTTTA — higher, 0.0311
- GACGAGCC — higher, 0.0624
- CGGGCCTA — higher, -0.0109
- CGGCCACA — lower, -0.127
- GCATGCTA — lower, -0.0636
- ACGACCCA — higher, 0.33
- AATGAACA — higher, 0.0137
- CAAAAGGC — lower, -0.141
- CATCCGGG — lower, -0.0612
- TTAAACAA — lower, -0.156
- CATTTTCC — lower, -0.0876
- GGCACGCC — lower, -0.232
- ATCCCGCC — higher, 0.0153
- ACCACAGG — lower, -0.188
- AGATAGAT — lower, -0.143
- GGCTATAA — lower, -0.0859
- ATCTCACG — lower, -0.0833
- ATCCTTAG — lower, -0.0593
- AACCTCAT — lower, -0.183
- GCAACAGA — lower, -0.113
- ATGAATGG — lower, -0.174
- ACGCGTAA — higher, 0.128
- CGCAATTC — higher, 0.0663
- AGGCTCAA — lower, -0.37
- ACACGGCG — lower, -0.0862
- CGGACCAG — higher, 0.112
- ACCCGGAT — higher, 0.0534
- CAAAGCGC — lower, -0.14
- ATTGGACC — lower, -0.189
- CTCACCAA — higher, -0.0306
- ACGTGCGA — higher, 0.206
- ATGGAATC — higher, 0.127
- GCTGGCAC — lower, -0.325
- CAGCACCC — lower, -0.15
- ATTTGTCC — lower, -0.139
- ATCAAGAG — lower, -0.0407
- GCCCTAAC — lower, -0.27
- AAGGACTG — lower, -0.244
- GTTCCCGA — higher, 0.271
- TAGCTATA — higher, 0.0445
- CTCATGGC — lower, -0.0939
- AACCGCAA — higher, 0.0506
- GTCTCTAA — lower, -0.0743
- ACACAGTC — higher, 0.0479
- CCGTCTAG — lower, -0.0762
- CCAAAGCC — lower, -0.129
- CTAATCAC — higher, 0.0645
- CTTTCTCC — lower, -0.177
- CTGATGCC — lower, -0.127
- ACTACATA — lower, -0.238
- AATTTTGG — lower, -0.0778
- AAATAACC — lower, -0.212
- CCAAAGAG — lower, -0.223
- GAGGTGAA — higher, -0.00098
- ACGAGTAC — higher, 0.421
- CCCACATC — lower, -0.184
- CAACCGTG — lower, -0.13
- AGAGGAGG — lower, -0.172
- AAGGAATA — higher, 0.0891
- CGGCGGGA — lower, -0.107
- CACGCCCA — lower, -0.278
- ATACGCCA — higher, 0.286
- GCATGTCA — lower, -0.0571
- CGTCGAAA — higher, 0.187
- GCTTCAAC — lower, -0.141
- GGCCGAAC — higher, -0.0006
- CCCTCCGG — lower, -0.11
- ACTAAGAC — lower, -0.121
- GTTCGCGA — higher, 0.325
- GAGCCGCC — lower, -0.104
- CTCGTCAA — higher, -0.00128
- CTGTCCCA — lower, -0.11
- AGTTATAC — higher, 0.327
- ACCGAGAC — higher, 0.179
- CCTCAGCC — lower, -0.211
- GGTCAACC — higher, -0.0213
- GAGAGCAA — lower, -0.0748
- GAATCGTA — higher, 0.38
- AGCTTTAA — higher, 0.012
- GCTAAACC — higher, 0.0474
- AGATTACA — higher, 0.0505
- AATCCCGC — higher, -0.00265
- CCAATCTA — lower, -0.107
- AGTAAGTC — lower, -0.0599
- CTATCTAC — higher, 0.0159
- GCCTGACA — lower, -0.277
- TGGAGAAA — lower, -0.203
- TCTGTGCA — lower, -0.237
- TACCAACA — higher, -0.0136
- AAGCAGGT — lower, -0.29
- CGGCATCC — higher, 0.0319
- ACCGGAGC — lower, -0.118
- CGAATACG — higher, 0.362
- CAACCTCG — higher, 0.195
- CGTATACC — higher, 0.469
- TAGAGGGA — lower, -0.265
- CTGTAAAC — lower, -0.0609
- CTTCCCTC — higher, -0.02
- ACCTCCCT — lower, -0.129
- ACGCCACA — higher, -0.00205
- TGGCCAAA — lower, -0.173
- ACCACCTC — lower, -0.0744
- GGAGGGTA — lower, -0.242
- CCCTACAA — lower, -0.0348
- CGCCAGTA — higher, -0.0113
- AAGGTCCG — higher, 0.0272
- GATCGTAC — higher, 0.454
- GATTCGCC — higher, 0.0637
- CAGTTTCC — lower, -0.0573
- ACATCTCT — lower, -0.24
- AACATTTG — lower, -0.079
- CTAGCTTC — lower, -0.073
- AGTCGTCA — lower, -0.236
- GGCAAAAA — lower, -0.0775
- AAAACGCG — higher, 0.213
- TGATAAAA — higher, 0.0339
- GATTTCAA — lower, -0.148
- GGCTACCA — lower, -0.2
- AGCCACCT — lower, -0.202
- ATAGGACG — lower, -0.105
- ATGATTAG — lower, -0.0405
- CGTTACGA — higher, 0.403
- GGTTCTGA — higher, 0.0927
- GCATGCGA — higher, 0.25
- GCCGTGAC — lower, -0.168
- CCCCTCCC — lower, -0.196
- AATCAAGA — lower, -0.0519
- TAAAAGTA — lower, -0.188
- ATGGCCCA — lower, -0.0849
- ACTGACCG — higher, 0.113
- CATCTTGA — lower, -0.108
- ATCTTGAG — lower, -0.165
- CAGGGCGA — higher, 0.0473
- GGGACGAA — lower, -0.0942
- CTTCCCGA — higher, 0.122
- GGAGATAC — higher, -0.00238

Reference: the supplement of paper PMC3334620
